# According to article PMC6451091:
# This is one part of the list. For part of these data: At the low end of the ranking the order means little. For part of these data: Measured with an extract: partners may take part in the binding.
# Experiments:
# Settings in all cases: 20 mM HEPES pH 7.9, 100 mM NaCl, 1 mM DTT, 0.2 mg/mL BSA, 0.02% Triton X-100, 2% milk, 0.4 mg/mL salmon testes DNA; 1 h; temperature not stated; high values mean tight binding; double strand, one strand shown; sequences stand for … in GCCTAGCAC…GTGCTAGGTCTTGATTCGCTTGACGCTGCTG
# [1] = biological target: PU.1 (IVT) (UniProt P17947); test: protein-binding microarray (PBM)
# [2] = biological target: PU.1 (endogenous, THP-1 nuclear extract) (UniProt P17947); test: nuclear extract protein-binding microarray (nextPBM)
# [3] = biological target: T1, FLI1 (endogenous, THP-1 nuclear extract) (UniProt Q01543); test: as above
# T1 sequence: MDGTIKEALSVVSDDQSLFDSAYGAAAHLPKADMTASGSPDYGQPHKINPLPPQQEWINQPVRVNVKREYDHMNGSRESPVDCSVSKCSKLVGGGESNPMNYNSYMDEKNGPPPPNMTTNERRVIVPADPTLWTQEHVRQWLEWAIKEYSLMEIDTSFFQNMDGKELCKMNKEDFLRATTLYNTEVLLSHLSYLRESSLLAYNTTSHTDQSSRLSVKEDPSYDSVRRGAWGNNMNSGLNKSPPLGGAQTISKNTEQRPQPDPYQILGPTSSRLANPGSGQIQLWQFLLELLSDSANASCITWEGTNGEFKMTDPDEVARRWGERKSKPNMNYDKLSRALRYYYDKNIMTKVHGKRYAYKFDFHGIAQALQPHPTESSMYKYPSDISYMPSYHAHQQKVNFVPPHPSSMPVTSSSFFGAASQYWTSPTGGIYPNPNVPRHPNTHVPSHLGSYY
# [4] = tested on: PU.1 (endogenous, THP-1 nuclear extract) + IRF8 (endogenous, THP-1 nuclear extract); test: as above
Sequence,binding signal [1],binding signal [2],binding signal [3],binding signal [4]
ATGCTATGGATTCTTTAACC,-0.284 z-score,-0.484 z-score,-0.399 z-score,1.17 z-score
GAAAGGCAGACTTGGGCTTG,-0.755 z-score,-0.294 z-score,-0.312 z-score,0.029 z-score
TACAAGCCAGGAAGACAGAC,-0.258 z-score,-0.12 z-score,0.995 z-score,-0.459 z-score
AGTCCCCTCACACATTTCCC,-0.438 z-score,-0.176 z-score,1.72 z-score,-0.0177 z-score
ATAAAGATACATTCATTCTC,-0.0697 z-score,-0.452 z-score,-0.301 z-score,-0.74 z-score
ATTTCTGCTGCGTGAAACTA,0.356 z-score,-0.158 z-score,-0.217 z-score,1.97 z-score
GACCTACCTGGTTGCTGGGG,-0.448 z-score,0.00845 z-score,-0.246 z-score,0.734 z-score
AGAAACACTGCGTGAAACTG,0.0957 z-score,-0.246 z-score,-0.799 z-score,1.42 z-score
AAAAAAACTGCATGAAAGTA,-0.32 z-score,-0.465 z-score,-0.354 z-score,2.47 z-score
GCCACCGCCGGAGCGAAAAG,-0.726 z-score,-0.406 z-score,0.215 z-score,0.567 z-score
CATCCTACTTTAAGTTTCTG,-0.232 z-score,-0.0185 z-score,0.451 z-score,0.28 z-score
GACGGGGAAGGACATGGAGC,-0.464 z-score,0.0923 z-score,0.41 z-score,0.484 z-score
TCGTCACCACTTATTTTGAA,0.0665 z-score,-0.416 z-score,-0.658 z-score,-0.637 z-score
GGGCCAAGCAGGCATTAAAC,-0.0908 z-score,-0.307 z-score,-0.975 z-score,-0.72 z-score
TTTCAGGTAATTCTAATACA,0.129 z-score,-0.216 z-score,-0.0686 z-score,1.69 z-score
CTTTATAGTTGGTATAAAAA,-0.239 z-score,-0.495 z-score,-0.0786 z-score,0.0252 z-score
AAGTGGCTTCCGCTTACTGG,3.16 z-score,3.44 z-score,3.38 z-score,0.32 z-score
CAGGAGTTCGAGACCAGCTT,-0.39 z-score,-0.309 z-score,-0.668 z-score,0.572 z-score
TCAACCTGCAGTTCTGGAGG,-0.572 z-score,-0.382 z-score,-0.556 z-score,-0.236 z-score
CAAGGCTGCAATGAGTCATG,-0.036 z-score,-0.209 z-score,-0.686 z-score,0.69 z-score
TGGAAAAGGAAGTGAAACCA,3.65 z-score,–,3.5 z-score,55.2 z-score
CTTTTATTATAAACTCTTCA,-0.297 z-score,-0.323 z-score,-0.242 z-score,-0.373 z-score
GCTTTAAGGAACTGAAACTG,2.65 z-score,–,1.67 z-score,28.5 z-score
CGAAAAGGGAAGTGAAACTC,6.24 z-score,–,3.77 z-score,72.2 z-score
CCTTCCCAGCCTGTGCCGGA,-0.713 z-score,0.0362 z-score,0.066 z-score,-0.358 z-score
ACATTTAGGAACTGAAAGCG,1.22 z-score,–,1.12 z-score,2.96 z-score

Sequence,binding signal [1],binding signal [2],binding signal [3],binding signal [4]
TGAGAGGAGAATTGAAACCT,-0.143 z-score,–,-0.0677 z-score,3.54 z-score
AAAAAAAGTAAATGAAAGTA,-0.0555 z-score,–,-0.386 z-score,3.09 z-score
GTCAAGAGGAACTGAAACTG,2.99 z-score,–,1.78 z-score,33.4 z-score
TTTGGAAGGAACTGAAACCA,0.887 z-score,–,0.65 z-score,16.1 z-score
TGAGACGAGAAGTGAAACCT,0.816 z-score,–,0.0159 z-score,19.9 z-score
ATTTTCAGGAAGTGAAACTA,5.62 z-score,–,4.43 z-score,76 z-score
AAAAAGAGGATGTGAAACTA,4.49 z-score,–,3.25 z-score,64 z-score
GATAAGAGGAACTGAGAGCT,3.92 z-score,–,1.22 z-score,0.808 z-score
TGGCAGAGGCAGTGAAACTA,-0.453 z-score,–,-0.372 z-score,12.2 z-score
GTTTTTTGGCTGCTCCAGAC,-0.405 z-score,-0.708 z-score,0.219 z-score,-1.99 z-score
AAAAAAAGGAAATGTAAGTA,3.14 z-score,–,1.86 z-score,-0.302 z-score
TGGCAGAGGAAGTGCAACTA,2.82 z-score,–,2.49 z-score,1.16 z-score
TGAAACAGGAAGTGAAACCC,6.63 z-score,–,5.88 z-score,61.3 z-score
TCAGAAGAGAATAGGAGTCC,-0.345 z-score,-0.483 z-score,-0.365 z-score,0.884 z-score
GAAAAGGGGAAATGAAACTA,5.44 z-score,–,3.14 z-score,60.4 z-score
GATAAAAGGAACTGAAAGCT,2.21 z-score,–,0.861 z-score,1.44 z-score
TGAGTGGAGAAGTGAAACCT,1.09 z-score,–,-0.0974 z-score,23.5 z-score
CTGCCAGGGACGTGAAAGCA,-0.111 z-score,–,-0.552 z-score,-0.0127 z-score
TGCCAGAGGAAGTGAAACTA,2.82 z-score,–,3.59 z-score,54.7 z-score
CCCAGGAGGAACTGAAACTG,2.73 z-score,–,1.62 z-score,28.2 z-score
CAAATTAGGAAGTGAAACTG,4.56 z-score,–,3.7 z-score,63.8 z-score
TGAAACAGGAAGTGACACCA,6.93 z-score,–,5.42 z-score,1.5 z-score
TCTTTGGGGAACTGAAACCA,2.23 z-score,–,1.37 z-score,26.9 z-score
CTGGCAGGAAACTGAAACTC,0.581 z-score,–,2.88 z-score,15 z-score
ACAATGGAGAAGTGAAACTG,2.41 z-score,–,1.27 z-score,53 z-score
GTGCCAGGGAAGTGAAAGCA,1.25 z-score,–,0.548 z-score,3.55 z-score

Sequence,binding signal [1],binding signal [2],binding signal [3],binding signal [4]
CTGGCAGGGAACTGACACTC,-0.0602 z-score,–,-0.396 z-score,-0.0444 z-score
TCGAGTGGGAAGTGAAAGTG,2.65 z-score,–,1.81 z-score,15.3 z-score
TGAAACAGGAAGCGAAACCA,3.62 z-score,–,4.58 z-score,65.2 z-score
CTGGCAGGGCACTGAAACTC,-0.81 z-score,–,-0.739 z-score,3.76 z-score
CTGGAAGGGAACTGAAACTC,1.45 z-score,–,0.797 z-score,14.1 z-score
TGAGAGGAGAAATGAAACCT,0.39 z-score,–,0.259 z-score,9.4 z-score
GAGAAGAGGAACTGAAAGCT,4.24 z-score,–,1.97 z-score,3.84 z-score
GATGAGAGGAACTGAAAGCT,2.23 z-score,–,0.792 z-score,1.77 z-score
TGGCAGAGGGAGTGAAACTA,-0.14 z-score,–,-0.245 z-score,19.2 z-score
GTTTTGAGGAACTGAAACTT,4.72 z-score,–,3.1 z-score,41.2 z-score
TGAAACAGGGAGTGAAACCA,-0.393 z-score,–,-0.763 z-score,12.6 z-score
GCCTAAAGGAAGTGAAAGTG,1.69 z-score,–,2.56 z-score,19.7 z-score
CTGGCAGGCAACTGAAACTC,-0.282 z-score,–,-0.469 z-score,7.6 z-score
CCACAGAGGAAATGAAACTT,1.62 z-score,–,2.76 z-score,17.9 z-score
TGGCAGAGGAAGTGAAGCTA,2.39 z-score,–,2.44 z-score,0.192 z-score
TGAAACACGAAGTGAAACCA,0.17 z-score,–,0.145 z-score,32.2 z-score
CTTTAGAGGAACTGAAACTC,2.69 z-score,–,1.69 z-score,25.8 z-score
TGAGAGGGGAAGTGAAACCT,4.12 z-score,–,3.01 z-score,50.7 z-score
TGAAACAGGCAGTGAAACCA,-0.323 z-score,–,-0.183 z-score,9.74 z-score
TCATTAGGGAAGTGAAAGTA,3.86 z-score,–,2.24 z-score,42.6 z-score
TGAGAGGAGAAGTGCAACCT,0.689 z-score,–,-0.294 z-score,1.29 z-score
AGAAAACGGAAGTGAAACTC,6.77 z-score,–,5.44 z-score,69.4 z-score
TGGCAGAGGAAGTGAAAATA,3.29 z-score,–,2.72 z-score,2.81 z-score
TAAAGAAGGAACTGAAACCA,2.41 z-score,–,1.56 z-score,30.3 z-score
CTGGCAGGGAACTGAACCTC,0.425 z-score,–,-0.233 z-score,0.972 z-score
TGAGAGGAGAAGTGAAACGT,1.6 z-score,–,0.122 z-score,0.78 z-score

Sequence,binding signal [1],binding signal [2],binding signal [3],binding signal [4]
CGAAACAGGAAGTGAAACCA,6.68 z-score,–,5.85 z-score,80.8 z-score
ATTTTGAAGAACTGAAACTG,0.566 z-score,–,0.0712 z-score,17.2 z-score
TTTCAGAGGAACTGAAAGTT,1.5 z-score,–,0.845 z-score,3.73 z-score
TGGCAGAGGAAGTGAAACTG,3.48 z-score,–,3.42 z-score,55.5 z-score
AAATACAGGAAGTGAAACTT,6.55 z-score,–,5.2 z-score,60.2 z-score
TAAAGGAGGAACCGAAACCA,2.42 z-score,–,2.24 z-score,79.6 z-score
TGAGGGGAGAAGTGAAACCT,1.11 z-score,–,0.143 z-score,29.2 z-score
AATAAGAGGAACTGAAAGCT,4.65 z-score,–,1.78 z-score,9.74 z-score
AAAAAGAAGAAGTGAAACTA,4.43 z-score,–,2.8 z-score,70.6 z-score
TGGCAGCGGAAGTGAAACTA,3.61 z-score,–,5.01 z-score,61.8 z-score
TAAAGGTGGAACTGAAACCA,1.02 z-score,–,0.607 z-score,20.2 z-score
ATTTCTGGGAAGTGAAACTA,1.93 z-score,–,1.95 z-score,52.5 z-score
TTAATCAGGAACTGAAACTT,2.27 z-score,–,1.51 z-score,18.6 z-score
AAAAAAAAGAAATGAAAGTA,0.389 z-score,–,0.166 z-score,6.13 z-score
GATAAGAGTAACTGAAAGCT,-0.246 z-score,–,-1.12 z-score,-0.37 z-score
AAAGAAAGGAAATGAAAGTA,0.624 z-score,–,2.23 z-score,10.4 z-score
TTTAAAGGGAAATGAAACTG,1.39 z-score,–,1.75 z-score,23.1 z-score
AAAAGGAGGAACTGAAACCA,4.47 z-score,–,2.34 z-score,51.3 z-score
GGTAGAGAGAAGTGAAAGTG,1.05 z-score,–,0.379 z-score,18.4 z-score
CAAATGGGGAAATGAAACTC,4.01 z-score,–,2.37 z-score,29.6 z-score
TGAAACAGGACGTGAAACCA,0.207 z-score,–,1.56 z-score,5.04 z-score
CTGCAAAGGAAGTGAAACTC,1.58 z-score,–,2.24 z-score,28.1 z-score
GCTAAGAGGAACTGAAAGCT,3.51 z-score,–,1.37 z-score,3.67 z-score
TGTAACAGGAAGTGAAACCA,4.74 z-score,–,5.48 z-score,75.9 z-score
